The source of these data is the supplement of paper PMC11876631.

± gives the standard deviation of the averaged measurements. Laboratory Escherichia coli strains with one amino-acid change in an essential protein, pooled on minimal glucose agar with carbenicillin or gentamicin at twice the control MIC (plus kanamycin and chloramphenicol for the plasmids), 48 h. Fold change of barcode share against drug-free plates; higher = less susceptible. Active = above 20 in both replicates (the paper's putatively resistant). '<' = one read or none on drug, '>' = one read or none on a drug-free plate. Shares are relative, so most strains fall below 1 when a few take over. Listed are strains with at least 15 reads on both drug-free plates, and hits; most hits rest on fewer reference reads. Replicate rank correlation about 0.5. Edits are read from barcodes.

For this series, the target named is Escherichia coli (laboratory strain). Kind of series: barcode share on antibiotic plates over drug-free plates; higher = less susceptible. As to the method:
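A pool of E. coli strains, each edited to carry one amino-acid change in an essential protein, was grown for 48 h on minimal glucose agar with or without antibiotic; strain barcodes were sequenced; mean of two replicates.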

Setting [1] is: antibiotic: carbenicillin, 2× MIC (3.1 µg/mL).
Setting [2] is: antibiotic: gentamicin, 2× MIC (MIC 0.45 µg/mL).

B1: lpxA V32A (protein)
chain: MIDKSAFVHPTAIVEEGASIGANAHIGPFCIAGPHVEIGEGTVLKSHVVVNGHTKIGRDNEIYQFASIGEVNQDLKYAGEPTRVEIGDRNRIRESVTIHRGTVQGGGLTKVGSDNLLMINAHIAHDCTVGNRCILANNATLAGHVSVDDFAIIGGMTAVHQFCIIGAHVMVGGCSGVAQDVPPYVIAQGNHATPFGVNIEGLKRRGFSREAITAIRNAYKLIYRSGKTLDEVKPEIAELAETYPEVKAFTDFFARSTRGLIR
Turning to B1, the “fold change of barcode share” value under setting [1] was > 48.1 [active].

B2: lpxA I215A (protein)
chain: MIDKSAFVHPTAIVEEGASIGANAHIGPFCIVGPHVEIGEGTVLKSHVVVNGHTKIGRDNEIYQFASIGEVNQDLKYAGEPTRVEIGDRNRIRESVTIHRGTVQGGGLTKVGSDNLLMINAHIAHDCTVGNRCILANNATLAGHVSVDDFAIIGGMTAVHQFCIIGAHVMVGGCSGVAQDVPPYVIAQGNHATPFGVNIEGLKRRGFSREAITAARNAYKLIYRSGKTLDEVKPEIAELAETYPEVKAFTDFFARSTRGLIR
As for B2, the “fold change of barcode share” value under setting [1] turned out to be 0.161 ± 0.055 and the “fold change of barcode share” value under setting [2] was under 0.0169.

B3: lpxA V171Q (protein)
chain: MIDKSAFVHPTAIVEEGASIGANAHIGPFCIVGPHVEIGEGTVLKSHVVVNGHTKIGRDNEIYQFASIGEVNQDLKYAGEPTRVEIGDRNRIRESVTIHRGTVQGGGLTKVGSDNLLMINAHIAHDCTVGNRCILANNATLAGHVSVDDFAIIGGMTAVHQFCIIGAHVMQGGCSGVAQDVPPYVIAQGNHATPFGVNIEGLKRRGFSREAITAIRNAYKLIYRSGKTLDEVKPEIAELAETYPEVKAFTDFFARSTRGLIR
On to B3, for which the “fold change of barcode share” value by setting is: under setting [1], 0.778 ± 0.62; under setting [2], under 0.00197.

B4: lpxA V171D (protein)
chain: MIDKSAFVHPTAIVEEGASIGANAHIGPFCIVGPHVEIGEGTVLKSHVVVNGHTKIGRDNEIYQFASIGEVNQDLKYAGEPTRVEIGDRNRIRESVTIHRGTVQGGGLTKVGSDNLLMINAHIAHDCTVGNRCILANNATLAGHVSVDDFAIIGGMTAVHQFCIIGAHVMDGGCSGVAQDVPPYVIAQGNHATPFGVNIEGLKRRGFSREAITAIRNAYKLIYRSGKTLDEVKPEIAELAETYPEVKAFTDFFARSTRGLIR
As to B4, the “fold change of barcode share” value runs as follows: under setting [1], 0.293 ± 0.05; under setting [2], 0.00259 ± 0.0017.

B5: lpxA V171W (protein)
chain: MIDKSAFVHPTAIVEEGASIGANAHIGPFCIVGPHVEIGEGTVLKSHVVVNGHTKIGRDNEIYQFASIGEVNQDLKYAGEPTRVEIGDRNRIRESVTIHRGTVQGGGLTKVGSDNLLMINAHIAHDCTVGNRCILANNATLAGHVSVDDFAIIGGMTAVHQFCIIGAHVMWGGCSGVAQDVPPYVIAQGNHATPFGVNIEGLKRRGFSREAITAIRNAYKLIYRSGKTLDEVKPEIAELAETYPEVKAFTDFFARSTRGLIR
With B5, the “fold change of barcode share” value reads like this: under setting [1], 0.355 ± 0.049; under setting [2], 0.05 ± 0.06.

B6: lpxA L44A (protein)
chain: MIDKSAFVHPTAIVEEGASIGANAHIGPFCIVGPHVEIGEGTVAKSHVVVNGHTKIGRDNEIYQFASIGEVNQDLKYAGEPTRVEIGDRNRIRESVTIHRGTVQGGGLTKVGSDNLLMINAHIAHDCTVGNRCILANNATLAGHVSVDDFAIIGGMTAVHQFCIIGAHVMVGGCSGVAQDVPPYVIAQGNHATPFGVNIEGLKRRGFSREAITAIRNAYKLIYRSGKTLDEVKPEIAELAETYPEVKAFTDFFARSTRGLIR
For B6, the “fold change of barcode share” value under setting [1] was 0.226 ± 0.0072 and the “fold change of barcode share” value under setting [2] is under 0.0123.

B7: lpxA V171A (protein)
chain: MIDKSAFVHPTAIVEEGASIGANAHIGPFCIVGPHVEIGEGTVLKSHVVVNGHTKIGRDNEIYQFASIGEVNQDLKYAGEPTRVEIGDRNRIRESVTIHRGTVQGGGLTKVGSDNLLMINAHIAHDCTVGNRCILANNATLAGHVSVDDFAIIGGMTAVHQFCIIGAHVMAGGCSGVAQDVPPYVIAQGNHATPFGVNIEGLKRRGFSREAITAIRNAYKLIYRSGKTLDEVKPEIAELAETYPEVKAFTDFFARSTRGLIR
On to B7, for which the “fold change of barcode share” value runs as follows: under setting [1], 0.301 ± 0.023; under setting [2], 0.00695 ± 0.0037.

B8: lpxA F249W (protein)
chain: MIDKSAFVHPTAIVEEGASIGANAHIGPFCIVGPHVEIGEGTVLKSHVVVNGHTKIGRDNEIYQFASIGEVNQDLKYAGEPTRVEIGDRNRIRESVTIHRGTVQGGGLTKVGSDNLLMINAHIAHDCTVGNRCILANNATLAGHVSVDDFAIIGGMTAVHQFCIIGAHVMVGGCSGVAQDVPPYVIAQGNHATPFGVNIEGLKRRGFSREAITAIRNAYKLIYRSGKTLDEVKPEIAELAETYPEVKAWTDFFARSTRGLIR
Turning to B8, the “fold change of barcode share” value was 0.232 ± 0.096 under setting [1] and under 0.011 under setting [2].

B9: lpxA V171P (protein)
chain: MIDKSAFVHPTAIVEEGASIGANAHIGPFCIVGPHVEIGEGTVLKSHVVVNGHTKIGRDNEIYQFASIGEVNQDLKYAGEPTRVEIGDRNRIRESVTIHRGTVQGGGLTKVGSDNLLMINAHIAHDCTVGNRCILANNATLAGHVSVDDFAIIGGMTAVHQFCIIGAHVMPGGCSGVAQDVPPYVIAQGNHATPFGVNIEGLKRRGFSREAITAIRNAYKLIYRSGKTLDEVKPEIAELAETYPEVKAFTDFFARSTRGLIR
With B9, the “fold change of barcode share” value is 0.252 ± 0.069 under setting [1] and 0.00761 ± 0.0039 under setting [2].

B10: lpxB V12A (protein)
chain: MTEQRPLTIALAAGETSGDILGAGLIRALKEHVPNARFVGVAGPRMQAEGCEAWYEMEELAVMGIVEVLGRLRRLLHIRADLTKRFGELKPDVFVGIDAPDFNITLEGNLKKQGIKTIHYVSPSVWAWRQKRVFKIGRATDLVLAFLPFEKAFYDKYNVPCRFIGHTMADAMPLDPDKNAARDVLGIPHDAHCLALLPGSRGAEVEMLSADFLKTAQLLRQTYPDLEIVVPLVNAKRREQFERIKAEVAPDLSVHLLDGMGREAMVASDAALLASGTAALECMLAKCPMVVGYRMKPFTFWLAKRLVKTDYVSLPNLLAGRELVKELLQEECEPQKLAAALLPLLANGKTSHAMHDTFRELHQQIRCNADEQAAQAVLELAQ
Regarding B10, the “fold change of barcode share” value runs as follows: under setting [1], 0.264 ± 0.012; under setting [2], under 0.00483.

B11: lpxB V12D (protein)
chain: MTEQRPLTIALDAGETSGDILGAGLIRALKEHVPNARFVGVAGPRMQAEGCEAWYEMEELAVMGIVEVLGRLRRLLHIRADLTKRFGELKPDVFVGIDAPDFNITLEGNLKKQGIKTIHYVSPSVWAWRQKRVFKIGRATDLVLAFLPFEKAFYDKYNVPCRFIGHTMADAMPLDPDKNAARDVLGIPHDAHCLALLPGSRGAEVEMLSADFLKTAQLLRQTYPDLEIVVPLVNAKRREQFERIKAEVAPDLSVHLLDGMGREAMVASDAALLASGTAALECMLAKCPMVVGYRMKPFTFWLAKRLVKTDYVSLPNLLAGRELVKELLQEECEPQKLAAALLPLLANGKTSHAMHDTFRELHQQIRCNADEQAAQAVLELAQ
In the case of B11, the “fold change of barcode share” value under setting [1] came to 1.03 ± 0.2.

B12: lpxB V12Q (protein)
chain: MTEQRPLTIALQAGETSGDILGAGLIRALKEHVPNARFVGVAGPRMQAEGCEAWYEMEELAVMGIVEVLGRLRRLLHIRADLTKRFGELKPDVFVGIDAPDFNITLEGNLKKQGIKTIHYVSPSVWAWRQKRVFKIGRATDLVLAFLPFEKAFYDKYNVPCRFIGHTMADAMPLDPDKNAARDVLGIPHDAHCLALLPGSRGAEVEMLSADFLKTAQLLRQTYPDLEIVVPLVNAKRREQFERIKAEVAPDLSVHLLDGMGREAMVASDAALLASGTAALECMLAKCPMVVGYRMKPFTFWLAKRLVKTDYVSLPNLLAGRELVKELLQEECEPQKLAAALLPLLANGKTSHAMHDTFRELHQQIRCNADEQAAQAVLELAQ
For B12, the “fold change of barcode share” value is, setting by setting: under setting [1], 1.27 ± 0.39; under setting [2], 0.00389 ± 0.0018.

B13: lptG L73P (protein)
chain: MQPFGVLDRYIGKTIFTTIMMTLFMLVSLSGIIKFVDQLKKAGQGSYDALGAGMYTLLSVPKDVQIFFPMAAPLGALLGLGMLAQRSELVVMQASGFTRMQVALSVMKTAIPLVLLTMAIGEWVAPQGEQMARNYRAQAMYGGSLLSTQQGLWAKDGNNFVYIERVKGDEELGGISIYAFNENRRLQSVRYAATAKFDPEHKVWRLSQVDESDLTNPKQITGSQTVSGTWKTNLTPDKLGVVALDPDALSISGLHNYVKYLKSSGQDAGRYQLNMWSKIFQPLSVAVMMLMALSFIFGPLRSVPMGVRVVTGISFGFVFYVLDQIFGPLTLVYGIPPIIGALLPSASFFLISLWLLMRKS
With B13, the “fold change of barcode share” value stood at 0.413 ± 0.026 under setting [1] and 0.014 ± 0.018 under setting [2].

B14: lptG I175W (protein)
chain: MQPFGVLDRYIGKTIFTTIMMTLFMLVSLSGIIKFVDQLKKAGQGSYDALGAGMYTLLSVPKDVQIFFPMAALLGALLGLGMLAQRSELVVMQASGFTRMQVALSVMKTAIPLVLLTMAIGEWVAPQGEQMARNYRAQAMYGGSLLSTQQGLWAKDGNNFVYIERVKGDEELGGWSIYAFNENRRLQSVRYAATAKFDPEHKVWRLSQVDESDLTNPKQITGSQTVSGTWKTNLTPDKLGVVALDPDALSISGLHNYVKYLKSSGQDAGRYQLNMWSKIFQPLSVAVMMLMALSFIFGPLRSVPMGVRVVTGISFGFVFYVLDQIFGPLTLVYGIPPIIGALLPSASFFLISLWLLMRKS
For the protein B14, the “fold change of barcode share” value was 0.208 ± 0.13 under setting [1] and under 0.0141 under setting [2].

B15: lptG I175A (protein)
chain: MQPFGVLDRYIGKTIFTTIMMTLFMLVSLSGIIKFVDQLKKAGQGSYDALGAGMYTLLSVPKDVQIFFPMAALLGALLGLGMLAQRSELVVMQASGFTRMQVALSVMKTAIPLVLLTMAIGEWVAPQGEQMARNYRAQAMYGGSLLSTQQGLWAKDGNNFVYIERVKGDEELGGASIYAFNENRRLQSVRYAATAKFDPEHKVWRLSQVDESDLTNPKQITGSQTVSGTWKTNLTPDKLGVVALDPDALSISGLHNYVKYLKSSGQDAGRYQLNMWSKIFQPLSVAVMMLMALSFIFGPLRSVPMGVRVVTGISFGFVFYVLDQIFGPLTLVYGIPPIIGALLPSASFFLISLWLLMRKS
Turning to B15, under setting [1], the “fold change of barcode share” value worked out at 0.205 ± 0.19.
